Assay results: patent publication US9975943B2, “Polypeptides” (AFFIBODY AB, priority 2013, dated 2018)

Target: human FcRn (Homo sapiens, UniProt P55899)
Assay: ELISA KD titration analysis of Z-ABD variants from the maturation
Format: binding
Parameters: purchased Biorbyt orb84388
Details: Z-ABD variants in periplasm
Protocol: A selection of FcRn binders was subjected to an analysis of the response against a dilution series of biotinylated human FcRn using ELISA at both pH 6.0 and pH 7.4 as described above. […] As a background control, all Z variants were also assayed with no target protein added. […] Periplasm containing the ABD moiety only was used as a negative control. Data were analyzed using GraphPad Prism 5 and non-linear regression and KD values (the half maximal effective concentration) were calculated.

Kd (pH 6.0, read-out: KD pH 6.0)	Kd (pH 7.4, read-out: KD pH 7.4)	Substance
1.1 nM	3.8 nM	Z13573: FcRn binding Z variant from the maturated library (VDAKYAKESKDAAHEIRWLPNLTFDQRVAFIHKLRDDPSQSSELLSEAKKLNDSQAPK; Engineered FcRn binding polypeptide)
1.2 nM	5 nM	Z13574: FcRn binding Z variant from the maturated library (VDAKYAKEKKEAAHEIRWLPNLTFDQRVAFIHKLRDDPSQSSELLSEAKKLNDSQAPK; Engineered FcRn binding polypeptide)
1.2 nM	5.3 nM	Z13579: FcRn binding Z variant from the maturated library (VDAKYAKEISAASHEIRWLPNLTFDQRVAFIHKLRDDPSQSSELLSEAKKLNDSQAPK; Engineered FcRn binding polypeptide)
1.2 nM	1.7 nM	Z13585: FcRn binding Z variant from the maturated library (VDAKYAKEYLDAAHEIRWLPNLTFDQRVAFIHKLRDDPSQSSELLSEAKKLNDSQAPK; Engineered FcRn binding polypeptide)
1.2 nM	2.3 nM	Z13586: FcRn binding Z variant from the maturated library (VDAKYAKELKDAGHEIRWLPNLTFDQRVAFIHKLRDDPSQSSELLSEAKKLNDSQAPK; Engineered FcRn binding polypeptide)
1.4 nM	6.9 nM	Z13587: FcRn binding Z variant from the maturated library (VDAKYAKEHVDAAHEIRWLPNLTFDQRVAFIHKLRDDPSQSSELLSEAKKLNDSQAPK; Engineered FcRn binding polypeptide)
1 nM	2.3 nM	Z13588: FcRn binding Z variant from the maturated library (VDAKYAKEYAAAAHEIRWLPNLTFDQRVAFIHKLRDDPSQSSELLSEAKKLNDSQAPK; Engineered FcRn binding polypeptide)
1.3 nM	6.3 nM	Z13594: FcRn binding Z variant from the maturated library (VDAKYAKEIDEAKHEIRWLPNLTFDQRVAFIHKLDDDPSQSSELLSEAKKLNDSQAPK; Engineered FcRn binding polypeptide)
1.4 nM	6 nM	Z13597: FcRn binding Z variant from the maturated library (VDAKYAKELQSAAHEIRWLPNLTFDQRVAFIHKLKDDPSQSSELLSEAKKLNDSQAPK; Engineered FcRn binding polypeptide)
1.1 nM	1.7 nM	Z13598: FcRn binding Z variant from the maturated library (VDAKYAKELEKAAHEIRWLPNLTFDQRVAFIHKLRDDPSQSSELLSEAKKLNDSQAPK; Engineered FcRn binding polypeptide)
1.4 nM	4 nM	Z13600: FcRn binding Z variant from the maturated library (VDAKYAKEAHEAAHEIRWLPNLTFDQRVAFIHKLRDDPSQSSELLSEAKKLNDSQAPK; Engineered FcRn binding polypeptide)
1.3 nM	3.8 nM	Z13605: FcRn binding Z variant from the maturated library (VDAKYAKEIESAKHEIRWLPNLTFDQRVAFIHKLNDDPSQSSELLSEAKKLNDSQAPK; Engineered FcRn binding polypeptide)
1.3 nM	2.7 nM	Z13609: FcRn binding Z variant from the maturated library (VDAKYAKEWKVAAHEIRWLPNLTFDQRVAFIHKLRDDPSQSSELLSEAKKLNDSQAPK; Engineered FcRn binding polypeptide)
1.3 nM	2.5 nM	Z13611: FcRn binding Z variant from the maturated library (VDAKYAKEWKAAAHEIRWLPNLTFDQRVAFIHKLRDDPSQSSELLSEAKKLNDSQAPK; Engineered FcRn binding polypeptide)
1.2 nM	4.3 nM	Z13613: FcRn binding Z variant from the maturated library (VDAKYAKELEAARHEIRWLPNLTFDQRVAFIHKLNDDPSQSSELLSEAKKLNDSQAPK; Engineered FcRn binding polypeptide)
1.2 nM	1.9 nM	Z13617: FcRn binding Z variant from the maturated library (VDAKYAKEADQAGHEIRWLPNLTFDQRVAFIRKLRDDPSQSSELLSEAKKLNDSQAPK; Engineered FcRn binding polypeptide)
1.3 nM	3.4 nM	Z13624: FcRn binding Z variant from the maturated library (VDAKYAKESKQAAHEIRWLPNLTFDQRVAFIHKLRDDPSQSSELLSEAKKLNDSQAPK; Engineered FcRn binding polypeptide)
1.3 nM	2.8 nM	Z13625: FcRn binding Z variant from the maturated library (VDAKYAKEVSDAAHEIRWLPNLTFDQRVAFIHKLRDDPSQSSELLSEAKKLNDSQAPK; Engineered FcRn binding polypeptide)

Kd (pH 6.0, read-out: KD pH 6.0)	Kd (pH 7.4, read-out: KD pH 7.4)	Substance
1.2 nM	2.7 nM	Z13626: FcRn binding Z variant from the maturated library (VDAKYAKEADSASHEIRWLPNLTFDQRVAFIHKLRDDPSQSSELLSEAKKLNDSQAPK; Engineered FcRn binding polypeptide)
1.2 nM	2.9 nM	Z13627: FcRn binding Z variant from the maturated library (VDAKYAKELMEAAHEIRWLPNLTFDQRVAFIHKLRDDPSQSSELLSEAKKLNDSQAPK; Engineered FcRn binding polypeptide)
1.3 nM	5.5 nM	Z13628: FcRn binding Z variant from the maturated library (VDAKYAKELNTAAHEIRWLPNLTFDQRVAFIHKLKDDPSQSSELLSEAKKLNDSQAPK; Engineered FcRn binding polypeptide)
1.1 nM	2.3 nM	Z13634: FcRn binding Z variant from the maturated library (VDAKYAKEWYNAAHEIRWLPNLTFDQRVAFIHKLRDDPSQSSELLSEAKKLNDSQAPK; Engineered FcRn binding polypeptide)
1 nM	1.7 nM	Z13635: FcRn binding Z variant from the maturated library (VDAKYAKEWNDAAHEIRWLPNLTFDQRVAFIHKLRDDPSQSSELLSEAKKLNDSQAPK; Engineered FcRn binding polypeptide)
1.3 nM	4.8 nM	Z13637: FcRn binding Z variant from the maturated library (VDAKYAKEVEVAKHEIRWLPNLTFDQRVAFIHKLDDDPSQSSELLSEAKKLNDSQAPK; Engineered FcRn binding polypeptide)
1.2 nM	2.9 nM	Z13638: FcRn binding Z variant from the maturated library (VDAKYAKEFNFAAHEIRWLPNLTFDQRVAFIHKLRDDPSQSSELLSEAKKLNDSQAPK; Engineered FcRn binding polypeptide)
1.3 nM	3 nM	Z13639: FcRn binding Z variant from the maturated library (VDAKYAKEHDSAAHEIRWLPNLTFDQRVAFIHKLRDDPSQSSELLSEAKKLNDSQAPK; Engineered FcRn binding polypeptide)
2.4 nM	7.6 nM	Z13742: FcRn binding Z variant from the maturated library (VDAKYAKELSTAAHEIRWLPNLTFDQRVAFIHKLRDDPSQSSELLSEAKKLNDSQAPK; Engineered FcRn binding polypeptide)
1.3 nM	2.3 nM	Z13747: FcRn binding Z variant from the maturated library (VDAKYAKEIEEAGHEIRWLPNLTFDQRVAFIHKLRDDPSQSSELLSEAKKLNDSQAPK; Engineered FcRn binding polypeptide)
2.8 nM	12 nM	Z13749: FcRn binding Z variant from the maturated library (VDAKYAKELQTASHEIRWLPNLTFDQRVAFIHKLRDDPSQSSELLSEAKKLNDSQAPK; Engineered FcRn binding polypeptide)
2.7 nM	8.4 nM	Z13750: FcRn binding Z variant from the maturated library (VDAKYAKEQDSAAHEIRWLPNLTFDQRVAFIRKLRDDPSQSSELLSEAKKLNDSQAPK; Engineered FcRn binding polypeptide)
2 nM	3.8 nM	Z13751: FcRn binding Z variant from the maturated library (VDAKYAKESASAGHEIRWLPNLTFDQRVAFIHKLRDDPSQSSELLSEAKKLNDSQAPK; Engineered FcRn binding polypeptide)
1.9 nM	6.5 nM	Z13758: FcRn binding Z variant from the maturated library (VDAKYAKEVQEAAHEIRWLPNLTFDQRVAFIHKLWDDPSQSSELLSEAKKLNDSQAPK; Engineered FcRn binding polypeptide)
2 nM	2.9 nM	Z13792: FcRn binding Z variant from the maturated library (VDAKYAKEIEVAAHEIRWLPNLTFDQRVAFIHKLRDDPSQSSELLSEAKKLNDSQAPK; Engineered FcRn binding polypeptide)
2.3 nM	4.2 nM	Z13796: FcRn binding Z variant from the maturated library (VDAKYAKERAEAAHEIRWLPNLTFDQRVAFIHKLRDDPSQSSELLSEAKKLNDSQAPK; Engineered FcRn binding polypeptide)
1.9 nM	5.6 nM	Z13799: FcRn binding Z variant from the maturated library (VDAKYAKESELAAHEIRWLPNLTFDQRVAFIWKLRDDPSQSSELLSEAKKLNDSQAPK; Engineered FcRn binding polypeptide)

Like-named read-outs stand apart in the source and are kept apart here.
